Consider 73 sequences from the supplement of paper PMC10338343.

± gives the standard deviation. The full ranking holds about 6,600 sequences; the median of “pre-steady-state target cleavage rate” is about 0.07, and the highest 2% start at about 0.72. The list shows a part of the results, in another mix than the full data.

The subject of this assay is MIWI (PIWIL1) piRISC loaded with Kctd7 piRNA (30 nt). Briefly: pre-steady-state target cleavage rate (min^-1); MIWI and MILI are mouse PIWI proteins and EfPiwi is from a freshwater sponge; tags in brackets are library labels; higher = faster piRNA-guided slicing of the target. As to conditions: guide: Kctd7 piRNA 5'p-UGUUAAUCUCUCAGAGAAGGUGACAGUGAU; auxiliary factor: 500 nM mouse GTSF1. On the procedure:
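Cleave-'n-Seq: a library of target RNAs (target site embedded in constant flanks, ACAGCATTCCGCGTTAGTGATATCCG... 5' flank; DNA-blocked outside the site) at 0.1 nM was incubated with 1 nM active mouse MILI or MIWI piRISC (synthetic 5'-monophosphorylated piRNA guide) with or without 500 nM mouse GTSF1 at 33 °C for 1 min to 16 h. Uncleaved targets were sequenced and normalised to non-target controls, and the pooled three trials were fitted to a burst-and-steady-state model to give the pre-steady-state cleavage rate (min^-1; k3 is constrained to at most 1e-4). Sequence is the target site only; target names encode pairing extent (gX:gY) and contiguous / 1-mismatch / 2-mismatch / bulge geometry. Fits with R² ≤ 0 are excluded.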
In the case of UAGUGAGUCACCUUCUCUGAGAGUUUAAGA, the “pre-steady-state target cleavage rate” value came to 0.342 ± 0.078.
To UACACUGUCACCUUGUCUGAGAGAUUAAGA belongs 0.264 ± 0.054; to UAGUGACACACCUUCUCUGAGAGAUUAAUCA, 0.179 ± 0.024; to UAGUGUGUCACCUGCUCUGAGAGAUUAACA, 0.448 ± 0.027.
In the case of UAGUGUGUCACCUUCUCUGAGAGAUAUUCA, the “pre-steady-state target cleavage rate” value worked out at 0.194 ± 0.049.
For the sequence UAGAGUGUCACCUUCACUGAGAGAUUAACA, the “pre-steady-state target cleavage rate” value is 0.409 ± 0.018.
To AUGUCUGUCACCUUCUCUGAGAGAUAUUGA belongs 0.0171 ± 0.0071.
In the case of UAGUGUGACACCUUCUCUGAGAGAAUAACA, the “pre-steady-state target cleavage rate” value turned out to be 0.203 ± 0.034.
Regarding AUCACUGUCACGUUCUCAGAGAGAUUAACA, the “pre-steady-state target cleavage rate” value came to 0.191 ± 0.013.
In the case of UACACUGUCACCUACUCUGAGAGAUAUUGA, the “pre-steady-state target cleavage rate” value came out at 0.00929 ± 0.004.
To UAGUGACACACCUUCUCUGACAGUUUAACA belongs 0.01 ± 0.0033.
To UAGUGACACACCUACUGUGAGAGAUUAACA belongs 0.0443 ± 0.0072; to UACACUGUCACCUUCAGAGAGAGAUUAACA, 0.097 ± 0.036; to UAGUGAGCACCUUCUCUGAGAGAUUAACA, 0.573 ± 0.043.
Consider UAGUGUGUCACCUUCUCUCAGAGAUAAACA, for which the “pre-steady-state target cleavage rate” value was found to be 0.076 ± 0.013.
On to UAGUGACUCACCUUCUCUGACAGAUAAACA, for which the “pre-steady-state target cleavage rate” value amounted to 0.0783 ± 0.011.
On to UAGUGACAGUGCUUCUCUGAGAGAUGUAACA, for which the “pre-steady-state target cleavage rate” value came out at 0.00296 ± 0.0028.
In the case of UAGUCUGUCACCUUCUCUGAAGAUUAACA, the “pre-steady-state target cleavage rate” value was found to be 0.0128 ± 0.004.
As to UAGACUGUCACCUUCUCUGAGAGAUAACA, the “pre-steady-state target cleavage rate” value is 0.0584 ± 0.012.
For UUCACUGUCACCUUGUGUGAGAGAUUAACA the value was 0.169 ± 0.012.
For UAGACUGUCACCCUCUCUGAGAGAUUAACA the value was 0.637 ± 0.038; for UAGUGAGUGACCUUCUCUGUGAGAUUAACA, 0.213 ± 0.016.
To UAGUCACUCACCUUCUCUGAGAGAUUAACA belongs 0.632 ± 0.028; to UAGUGAGUGACCUUCUCUGAGAGAUUUUGA, 0.00862 ± 0.0036; to UAGUCUGUCUCCUUCUCUGUGAGAUUAACA, 0.207 ± 0.012.
In the case of AUCACUGUCACCUUCUCAGAGAGAAUAACA, the “pre-steady-state target cleavage rate” value was 0.0929 ± 0.025.
UAGACUGUGACCUUCUCUGAGAGAUUUACA: the “pre-steady-state target cleavage rate” value was found to be 0.303 ± 0.043.
On to UACACUGUGACCUUCUGUGAGAGAUUAACA, for which the “pre-steady-state target cleavage rate” value came to 0.3 ± 0.022.
For UAGUGACAGACCUACUCUGAGAGAUAAACA the value was 0.0108 ± 0.0035; for UAGUGAGACACCUUCUCUGAGAGAUUUACA, 0.194 ± 0.025; for UUGACUGUCACCUUCUCUGACAGAUUAACA, 0.188 ± 0.021.
To UAGUGACACACCUUCUCUGAGAGAGUAACA belongs 0.314 ± 0.058; to UAGUGACUCACCUUGUCUGAGAGAUAAACA, 0.227 ± 0.04; to UAGACUGUCACCUUCUCUGAGAGAUAUACA, 0.313 ± 0.044.
To AUCACUGUCACCUUGUCUGAGAGAUUAACA belongs 0.527 ± 0.066.
UAGUGUGUCACCUUCUCUGAGACAUUAUCA: the “pre-steady-state target cleavage rate” value is 0.0192 ± 0.0056.
To UUCACUGUCACCUACUCUGAGACAUUAACA belongs 0.067 ± 0.0084; to AUCACUGUCACCUACUCUGAGAGAUAUUGA, 0.00742 ± 0.0034; to UUCACUGUCACGUUCUCUGAGAGAUAAACA, 0.271 ± 0.025.
To UUCACUGUGACCUUCUCUGACAGAUUAACA belongs 0.349 ± 0.023; to UUCACUCACACCUUCUCUGAGAGAUUAAGA, 0.0618 ± 0.011.
For UAGUGUGUCACCUUGAGUGAGAGAUUAACA the value was 0.00599 ± 0.0041; for UAGUGACUCACCUUCUCUGAGAGAUUGACA, 0.338 ± 0.049; for UAGUGAGUCACCUUGUCUGAGAGUUUAACA, 0.0617 ± 0.013.
Consider UACACUGUCACCUUCUCUGACAGAUUAACA, for which the “pre-steady-state target cleavage rate” value came to 0.285 ± 0.028.
With AUGACUGUCACCUUCUCUGAGUGAUUAACA, the “pre-steady-state target cleavage rate” value stood at 0.0203 ± 0.0028.
As to UAGUGUGUCACCAUCUCUGAGUGAUUAACA, the “pre-steady-state target cleavage rate” value came out at 0.0198 ± 0.0059.
To UAGUCAGUCACCUUCUCUGUGAGAUUAACA belongs 0.304 ± 0.015.
For UAGAUUGUCACCUUCUCUGAGAGAUUAACA the value was 0.619 ± 0.022.
Consider UACACUGUCACCUUGUCUGAGACAUUAACA, for which the “pre-steady-state target cleavage rate” value was 0.0935 ± 0.016.
For the sequence UAGUGACUCACCUUCUCUGAGAGAAAUACA, the “pre-steady-state target cleavage rate” value was 0.126 ± 0.028.
For AACACUGUCACCUUCUCUGAGAGAUUUACA the value was 0.442 ± 0.058; for UAGUGACAGUGGAAGAGUGAGAGAUAAAGA, less than 0.0001.
For UAGUGAGUCACCUUCAUCUGAGAGAUUAACA the value was 0.13 ± 0.031.
Consider UAGUGAGUCACCUUCUCUGAGCGAUUAACA, for which the “pre-steady-state target cleavage rate” value is 0.225 ± 0.021.
Take UAGUGAGUCUCCUUCUCUGAGAGAUAUUGA: the “pre-steady-state target cleavage rate” value amounted to 0.00856 ± 0.0039.
Consider UACACUGUCACCUUCUCUCAGAGAUUAACA, for which the “pre-steady-state target cleavage rate” value came to 0.126 ± 0.014.
To UAGUGUGUACCUUCUCUGAGAGAUUAACA belongs 0.482 ± 0.031; to UAGUGACAGAGCUUCUCUGAGAGAUUAUCA, 0.0105 ± 0.0034.
With AUCACUGUCACCUACUCUGAGAGUUUAACA, the “pre-steady-state target cleavage rate” value was 0.279 ± 0.046.
For UUCACUGUCACGUUCACUGAGAGAUUAACA the value was 0.401 ± 0.024; for UAGUGACAGUGGAACUCUCUCAGAUUAACA, less than 0.0001.
To UAGUCAGUCACCUUCUCUGAGAGAUUAUCA belongs 0.323 ± 0.039; to UACACUGUCGCCUUCUCUGAGAGAUUAACA, 0.708 ± 0.042.
To UAGUCUGUCACCAACUCUGAGAGAUUAAGA belongs 0.0487 ± 0.011; to UAGUGAGUCAGCUUCUCUCAGAGAUUAACA, 0.0683 ± 0.0065; to UAGACUGUCUCCUUCUCUGAGAGAUUUACA, 0.327 ± 0.039.
With UAGUGACACACCUACUCUGAGACAUUAACA, the “pre-steady-state target cleavage rate” value turned out to be 0.0101 ± 0.0035.
For UAGUGAGUCACUUCUCUGAGAGAUUAACA the value was 0.305 ± 0.026.
For the sequence UACACAGUCACCUUCUCUGAGACAUUAACA, the “pre-steady-state target cleavage rate” value stood at 0.226 ± 0.021.
On to UAGACUGUCACCUUCUCUGAGUCAUUAACA, for which the “pre-steady-state target cleavage rate” value is 0.00259 ± 0.0019.
To AUCACUGUCACGAUCUCUGAGAGAUUAACA belongs 0.634 ± 0.04; to UAGUCUGUCACCUUCUCUGAGAGAUUGACA, 0.255 ± 0.04.
